Results from PubChem BioAssay (NCI).
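Five concentrations, 48 hours, 96-well plates. GI50 is the concentration that inhibits growth by half.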 Certain results were filed several times, with different values. They are shown here; other results are not. An entry can have further records. For part of these data: A record mostly stands for its own series of concentrations, which the source does not state; a value can be the end of its range. Marks in square brackets tell the records apart. Letters hold for one entry only. For part of these data: The values listed for one entry repeat one measurement in other runs, samples, wells, individuals or studies.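 TGI is the concentration that stops growth completely.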

Legend:
Assay in all cases: NCI tumour cell line growth inhibition, 48 h
[1] = tested on: A498 renal
[2] = tested on: BT-549 breast
[3] = tested on: CAKI-1 renal
[4] = tested on: HOP-92 NSCLC
[5] = tested on: HS 578T breast
[6] = tested on: MDA-MB-435
[7] = tested on: NCI-H460 lung
[8] = tested on: NCI-H522 lung
[9] = tested on: RPMI-8226 leukemia
[10] = tested on: 786-0 renal
[11] = tested on: A549 NSCLC
[12] = tested on: ACHN renal
[13] = tested on: CCRF-CEM leukemia
[14] = tested on: DU-145 prostate
[15] = tested on: EKVX NSCLC
[16] = tested on: HCC-2998 colon
[17] = tested on: HCT-15 colon
[18] = tested on: HL-60(TB) leukemia
[19] = tested on: HOP-62 NSCLC
[20] = tested on: IGROV1 ovarian
[21] = tested on: K-562 leukemia
[22] = tested on: LOX IMVI melanoma
[23] = tested on: M14 melanoma
[24] = tested on: MALME-3M melanoma
[25] = tested on: MCF7 breast
[26] = tested on: MDA-MB-231 breast
[27] = tested on: MOLT-4 leukemia
[28] = tested on: NCI-H23 lung
[29] = tested on: OVCAR-4 ovarian
[30] = tested on: OVCAR-5 ovarian
[31] = tested on: OVCAR-8 ovarian
[32] = tested on: RXF 393 renal
[33] = tested on: SF-268 CNS
[34] = tested on: SF-295 CNS
[35] = tested on: SF-539 CNS
[36] = tested on: SK-MEL-2 melanoma
[37] = tested on: SK-MEL-28 melanoma
[38] = tested on: SK-MEL-5 melanoma
[39] = tested on: SK-OV-3 ovarian
[40] = tested on: SN12C renal
[41] = tested on: SNB-19 CNS
[42] = tested on: SNB-75 CNS
[43] = tested on: SR leukemia
[44] = tested on: SW-620 colon
[45] = tested on: T-47D breast
[46] = tested on: U251 CNS
[47] = tested on: UACC-257 melanoma
[48] = tested on: UACC-62 melanoma
[49] = tested on: XF 498 CNS

CN(C)c1ccc(/C=C(\C#N)c2ccccc2)cc1
TGI [1]: 987 nM [sample A, 1 test] and > 26.3 µM [sample B, mean of 2 tests] and 25.2 µM [sample C, 1 test]
TGI [2]: > 100 µM [sample A, 1 test] and 602 nM [sample B, 1 test] and 89.7 µM [sample C, 1 test]
TGI [3]: > 100 µM [sample A, 1 test] and 3.52 µM [sample B, mean of 2 tests] and > 100 µM [sample C, 1 test]
TGI [4]: 8.78 µM [sample A, 1 test] and > 100 µM [sample B, mean of 2 tests] and > 100 µM [sample C, 1 test]
GI50 [5]: 579 nM [sample A, 1 test] and 260 nM [sample B, mean of 2 tests] and 2.78 µM [sample C, 1 test]
TGI [5]: > 100 µM [sample A, 1 test] and 766 nM [sample B, mean of 2 tests] and > 100 µM [sample C, 1 test]
TGI [6]: 493 nM [sample A, 1 test] and 211 nM [sample B, 1 test] and > 100 µM [sample C, 1 test]
TGI [7]: 15.4 µM [sample A, 1 test] and 4.94 µM [sample B, mean of 2 tests] and > 100 µM [sample C, 1 test]
TGI [8]: 77.3 µM [sample A, 1 test] and 5.07 µM [sample B, 1 test]
TGI [9]: 4.51 µM [sample A, mean of 2 tests] and 69.6 µM [sample B, 1 test]

CC[C@@]1(O)C(=O)OCc2c1cc1n(c2=O)Cc2cc3c(CN(C)C)c(O)ccc3nc2-1
GI50 [10]: 12.5 nM [sample A, mean of 2 tests] and 246 nM [sample A, mean of 3 tests] and 25.8 nM [sample A, mean of 5 tests] and < 12.2 nM [sample B, mean of 2 tests]
TGI [10]: 2.29 µM [sample A, mean of 2 tests] and 2.17 µM [sample A, mean of 3 tests] and 445 nM [sample A, mean of 5 tests] and 33.1 nM [sample B, mean of 2 tests]
TGI [1]: 252 nM, 1.21 µM, 1.17 µM [sample A] and 84.8 nM [sample B]
TGI [11]: 3.67 µM, 5.42 µM, 9.25 µM [sample A] and 2.56 µM [sample B]
TGI [12]: 71.9 nM, 1.01 µM, 297 nM [sample A] and 1.23 µM [sample B]
GI50 [2]: 73.1 nM, 12.5 nM [sample A, 1 test] and 105 nM [sample A, mean of 6 tests] and 11.1 nM [sample B, 1 test]
TGI [2]: 1.04 µM, 1.09 µM [sample A, 1 test] and 35.3 µM [sample A, mean of 6 tests] and 67.1 nM [sample B, 1 test]
TGI [3]: 380 nM, 1.57 µM, 237 nM [sample A] and 975 nM [sample B]
TGI [13]: 484 nM, 540 nM, 213 nM [sample A] and < 47.1 nM [sample B]
GI50 [14]: 4.45 nM [sample A, mean of 3 tests] and 17.1 nM [sample A, mean of 4 tests] and 17.7 nM [sample A, mean of 5 tests] and < 11.8 nM [sample B, mean of 2 tests]
TGI [14]: 100 nM [mean of 3 tests] and 171 nM [mean of 4 tests] and 2.72 µM [mean of 5 tests]
TGI [15]: 8.4 µM, > 83.3 µM, 9.55 µM [sample A] and > 100 µM [sample B]
GI50 [16]: 533 nM [sample A, mean of 2 tests] and 490 nM [sample A, mean of 3 tests] and 465 nM [sample A, mean of 6 tests] and 78.3 nM [sample B, mean of 2 tests]
TGI [16]: 17 µM [sample A, mean of 2 tests] and 6.94 µM [sample A, mean of 3 tests] and 8.73 µM [sample A, mean of 6 tests] and 808 nM [sample B, mean of 2 tests]
TGI [17]: 6.26 µM, > 79.5 µM, 26.8 µM [sample A] and > 100 µM [sample B]
TGI [18]: 275 nM, 1.63 µM, 35.7 nM [sample A] and 43.3 nM [sample B]
TGI [19]: 499 nM, 1.99 µM, 20.7 nM [sample A] and 387 nM [sample B]
GI50 [4]: 59.5 nM [sample A, mean of 3 tests] and 347 nM [sample A, mean of 5 tests] and < 28.4 nM [sample B, mean of 2 tests]
TGI [4]: 844 nM, 19.4 µM, 228 nM [sample A] and 350 nM [sample B]
TGI [20]: 3.11 µM, 35.2 µM, 17.2 µM [sample A] and > 34.9 µM [sample B]
GI50 [21]: 12.1 nM [sample A, mean of 4 tests] and 137 nM [sample A, mean of 8 tests] and 25.4 nM [sample B, 1 test]
TGI [21]: 14.7 µM, > 87.1 µM, 63.7 µM [sample A] and > 100 µM [sample B]
GI50 [22]: 6.01 nM, 21.8 nM [sample A, mean of 4 tests] and 12.6 nM [sample A, mean of 7 tests] and < 10 nM [sample B, 1 test]
GI50 [23]: 7.23 nM, 16.4 nM [sample A, mean of 4 tests] and 27.6 nM [sample A, mean of 8 tests] and < 10 nM [sample B, mean of 2 tests]
TGI [23]: 553 nM, 4.42 µM [sample A, mean of 4 tests] and 3.1 µM [sample A, mean of 8 tests] and 94.1 nM [sample B, mean of 2 tests]
TGI [24]: 2.76 µM, 5.96 µM, 4.96 µM [sample A] and 1.23 µM [sample B]
TGI [25]: 25 µM, 2.46 µM [sample A] and > 100 µM [sample B]
TGI [26]: 6.61 µM, > 85.7 µM, 39.3 µM [sample A] and > 100 µM [sample B]
TGI [6]: 682 nM, 2.34 µM, 428 nM [sample A] and 471 nM [sample B]
TGI [27]: 9.6 nM, 12.1 µM, 384 nM [sample A] and < 20.1 nM [sample B]
TGI [28]: 245 nM, 1.15 µM, 250 nM [sample A] and 299 nM [sample B]
TGI [8]: 433 nM, 3.46 µM, 2.69 µM [sample A] and 1.69 µM [sample B]
TGI [29]: 2.78 µM, 48.3 µM, 13.9 µM [sample A] and > 95 µM [sample B]
TGI [30]: 2.29 µM, 6.48 µM, 1.93 µM [sample A] and > 100 µM [sample B]
GI50 [31]: 136 nM [sample A, mean of 3 tests] and 45 nM [sample A, mean of 7 tests] and 55.6 nM [sample A, mean of 8 tests] and 13.3 nM [sample B, 1 test]
TGI [31]: 2.1 µM [sample A, mean of 3 tests] and 1.26 µM [sample A, mean of 7 tests] and 24.7 µM [sample A, mean of 8 tests] and > 100 µM [sample B, 1 test]
TGI [9]: 6.84 µM, 31 µM, 26.1 µM [sample A] and 2 µM [sample B]
TGI [32]: 619 nM, 850 nM, 757 nM [sample A] and 159 nM [sample B]
TGI [33]: 1.08 µM, 72.7 µM, 13.4 µM [sample A] and 42.4 µM [sample B]
TGI [34]: 260 nM, 17.8 µM, 223 nM [sample A] and 182 nM [sample B]
TGI [35]: 20.7 nM, 105 nM, 31.4 nM [sample A] and 71.1 nM [sample B]
GI50 [36]: 365 nM [sample A, mean of 4 tests] and 739 nM [sample A, mean of 5 tests] and 1.4 µM [sample A, mean of 8 tests] and 763 nM [sample B, 1 test]
TGI [36]: 1.61 µM [sample A, mean of 4 tests] and 4.82 µM [sample A, mean of 5 tests] and 5.14 µM [sample A, mean of 8 tests] and > 100 µM [sample B, 1 test]
TGI [37]: 6.73 µM, 66 µM, 34.9 µM [sample A] and 5.55 µM [sample B]
TGI [38]: 83.1 nM, 366 nM, 150 nM [sample A] and 123 nM [sample B]
GI50 [39]: 16.5 nM [sample A, mean of 3 tests] and 21.4 nM [sample A, mean of 6 tests] and 67.1 nM [sample A, mean of 8 tests] and 18.6 nM [sample B, mean of 2 tests]
TGI [39]: 2.09 µM [sample A, mean of 3 tests] and 4.3 µM [sample A, mean of 6 tests] and 28.3 µM [sample A, mean of 8 tests] and 3.28 µM [sample B, mean of 2 tests]
TGI [40]: 291 nM, 12.8 µM, 1.26 µM [sample A] and > 100 µM [sample B]
TGI [41]: 18.3 µM, 36.8 µM, 6.88 µM [sample A] and > 100 µM [sample B]
GI50 [42]: 2.5 nM [sample A, mean of 2 tests] and 44.3 nM [sample A, mean of 7 tests] and 17.7 nM [sample B, mean of 2 tests]
TGI [42]: 134 nM, 745 nM, 218 nM [sample A] and 220 nM [sample B]
GI50 [43]: 3.74 nM, 12.5 nM [sample A, mean of 2 tests] and < 46.4 nM [sample A, mean of 6 tests] and < 10 nM [sample B, 1 test]
TGI [43]: 16.3 nM, 5.41 µM [sample A, mean of 2 tests] and 3.36 µM [sample A, mean of 6 tests] and 112 nM [sample B, 1 test]
GI50 [44]: 18.4 nM [sample A, mean of 4 tests] and 45.1 nM [sample A, mean of 6 tests] and 72.4 nM [sample A, mean of 7 tests] and < 11.7 nM [sample B, mean of 2 tests]
TGI [44]: 2.09 µM [sample A, mean of 4 tests] and 10.7 µM [sample A, mean of 6 tests] and > 62 µM [sample A, mean of 7 tests] and > 100 µM [sample B, mean of 2 tests]
TGI [45]: 4.11 µM, 20.5 µM, 5.9 µM [sample A] and > 50 µM [sample B]
GI50 [46]: < 11.7 nM [sample A, mean of 2 tests] and 13.7 nM [sample A, mean of 5 tests] and 29.6 nM [sample A, mean of 6 tests] and < 10 nM [sample B, 1 test]
TGI [46]: 311 nM [sample A, mean of 2 tests] and 264 nM [sample A, mean of 5 tests] and 5.88 µM [sample A, mean of 6 tests] and 77.4 nM [sample B, 1 test]
TGI [47]: 3 µM, 4.5 µM, 2.98 µM [sample A] and 1.45 µM [sample B]
GI50 [48]: 3.26 nM [sample A, mean of 3 tests] and 13.1 nM [sample A, mean of 6 tests] and 18.2 nM [sample A, mean of 8 tests] and < 10 nM [sample B, mean of 2 tests]
TGI [48]: 71.5 nM [sample A, mean of 3 tests] and 54.8 nM [sample A, mean of 6 tests] and 429 nM [sample A, mean of 8 tests] and 137 nM [sample B, mean of 2 tests]
TGI [49]: 7.76 µM and 274 nM
